Some of the results follow. The energies were worked out here from pooled read counts, against the library average; single values are noisy.
Each sequence was assayed against T1, Pho4 (S. cerevisiae) (UniProt P07270) (assay: relative binding free energy (BET-seq); higher = weaker binding). Conditions: reference: library average.
T1 sequence: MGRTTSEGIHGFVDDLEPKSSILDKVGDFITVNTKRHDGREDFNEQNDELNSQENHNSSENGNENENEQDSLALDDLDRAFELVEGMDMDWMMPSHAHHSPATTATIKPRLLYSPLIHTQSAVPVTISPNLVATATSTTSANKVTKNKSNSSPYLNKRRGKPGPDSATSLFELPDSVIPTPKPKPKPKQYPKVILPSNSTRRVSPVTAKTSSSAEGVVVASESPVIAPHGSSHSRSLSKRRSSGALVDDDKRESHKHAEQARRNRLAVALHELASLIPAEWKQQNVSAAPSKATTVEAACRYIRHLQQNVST

| Sequence | relative binding free energy [kcal/mol] |
| --- | --- |
| TGTTCCACGTGGATTT | 0.05 |
| ATTGGCACGTGTCGTG | -0.1 |
| TGTAGCACGTGGGTGC | -0.3 |
| AGTGTCACGTGCAGAG | 0.02 |
| AGGGCCACGTGAAGGT | 0.21 |
| CGATTCACGTGTGGGA | 0.18 |
| TATGGCACGTGGAAAG | -0.09 |
| AATCGCACGTGATGGT | 0.13 |
| TAGTACACGTGGTCTT | -0.01 |
| CGAGGCACGTGCGTGG | -0.23 |
| TTAGTCACGTGGGTGA | -0.1 |
| TAAAACACGTGGGGAT | -0.04 |
| AATGGCACGTGGGGTG | -0.24 |
| AGGGGCACGTGGAAGA | 0.04 |
| TGCGCCACGTGTGGGG | -0.11 |
| CATCTCACGTGGTGTG | 0.2 |
| ATCGGCACGTGGCGCG | -0.14 |
| GGGTTCACGTGGTGTC | 0.29 |
| CGAGTCACGTGGTTTG | 0.11 |
| CAGTTCACGTGAGTGG | 0.25 |
| CATTTCACGTGCATGT | 0.46 |
| AAGGTCACGTGAGGGT | 0.39 |
| GTTCACACGTGTGTGC | 0.25 |

| Sequence | relative binding free energy [kcal/mol] |
| --- | --- |
| GTGTACACGTGCGGGT | 0 |
| AGGTCCACGTGGATTG | 0.09 |
| AAAGGCACGTGGTTAT | -0.14 |
| TTCATCACGTGTGTTA | 0.22 |
| TAAGTCACGTGGAGTC | 0.19 |
| GTTTCCACGTGATGGA | 0.45 |
| AAAGTCACGTGTTGCT | 0.14 |
| GGTTGCACGTGTCTCG | 0.07 |
| AGCAGCACGTGGTTAG | -0.1 |
| GGATCCACGTGGGGTA | -0.1 |
| CATGTCACGTGGTCTT | 0.05 |
| CGTGTCACGTGTGACT | 0.19 |
| GGAGTCACGTGGTCGA | 0.06 |
| GAGGGCACGTGGCAAG | -0.08 |
| TAGGTCACGTGGGTTA | -0.11 |
| TTAGACACGTGATGGC | 0.25 |
| TGTCGCACGTGTTGTA | -0.03 |
| CGAATCACGTGGGAGT | 0.1 |
| ATAGGCACGTGCGGTA | -0.3 |
| GGCATCACGTGTGGCT | 0.19 |
| TCTTTCACGTGTGGCT | 0.17 |
| TTCTTCACGTGATTTG | 0.29 |
| TACGTCACGTGGAGTT | 0.11 |

| Sequence | relative binding free energy [kcal/mol] |
| --- | --- |
| CTTAGCACGTGGAGGG | -0.14 |
| AATTTCACGTGATTTT | 0.17 |
| ACTGACACGTGTAGTT | 0.14 |
| AGTGTCACGTGGGCCA | -0.15 |
| TGTACCACGTGTATGG | -0.07 |
| GATTGCACGTGGTGGT | 0.08 |
| GGGGTCACGTGTTACA | 0.12 |
| GAGGCCACGTGGGATG | -0.19 |
| ACATGCACGTGTGGTA | -0.04 |
| AGATTCACGTGTTTAA | 0.15 |
| TATGCCACGTGGTAGA | -0.09 |
| GCTTTCACGTGTATTA | 0.24 |
| CAGGTCACGTGGGATG | -0.05 |
| TGGGACACGTGCGTGC | -0.14 |
| GGTTTCACGTGGCTTT | 0.32 |
| GGATCCACGTGGCGGG | -0.02 |
| CCGTGCACGTGTGTGT | -0.09 |
| AGGATCACGTGCGGTA | 0.1 |
| TGGGTCACGTGTGCGG | 0.12 |
| ATGGCCACGTGGATGG | -0.1 |
| ACGTTCACGTGTAGTG | 0.28 |
| TTACGCACGTGGGAGG | -0.26 |
| AGGTACACGTGTATTA | 0.06 |

| Sequence | relative binding free energy [kcal/mol] |
| --- | --- |
| TGTAGCACGTGGTGGC | -0.07 |
| TGTGGCACGTGTTGCA | -0.18 |
| ACGTTCACGTGGCGTT | 0.15 |
| TCGCTCACGTGGGGGA | -0.04 |
| CTTGTCACGTGGAAGT | 0.12 |
| CTATTCACGTGATGGA | 0.36 |
| TTTCTCACGTGTAGGC | 0.25 |
| AAAGGCACGTGGTATG | -0.31 |
| AAGGGCACGTGAGAAT | 0.14 |
| GTGTGCACGTGCAGCG | -0.13 |
| GTTTTCACGTGGAGTC | 0.37 |
| ATGGTCACGTGGCTGT | 0 |
| AGTGACACGTGGGAGT | -0.15 |
| ATGTACACGTGTGAGG | 0.17 |
| TAAGGCACGTGTACGT | -0.05 |
| ATTAGCACGTGGTTGA | -0.18 |
| AATGTCACGTGTATGC | 0.16 |
| TTGTTCACGTGTCGGT | 0.24 |
| GTCAGCACGTGTGTGC | 0.02 |
| AGTAGCACGTGTGGAT | 0 |
| TGGTACACGTGGTGGT | 0.05 |
| TCCAGCACGTGGGTTT | -0.09 |
| GGGGGCACGTGGTATA | -0.06 |

| Sequence | relative binding free energy [kcal/mol] |
| --- | --- |
| AAAGACACGTGTGTTT | 0.11 |
| TAAGTCACGTGAGGGC | 0.28 |
| ATGGCCACGTGTGTTG | -0.17 |
| AGAGACACGTGGAAGG | -0.03 |
| AAGTACACGTGGGAGA | 0.09 |
| GAATGCACGTGGTTTT | 0.2 |
| TAGTGCACGTGGGTGT | -0.17 |
| AGATACACGTGAGGGA | 0.26 |
| ATTGCCACGTGGTGAT | -0.2 |
| AGGCGCACGTGTGTTT | -0.08 |
| TAGGGCACGTGAACGG | 0.08 |
| GAGCTCACGTGCTGGT | 0.24 |
| TTGGGCACGTGGTCTT | -0.03 |
| TCTAGCACGTGGGGTA | -0.2 |
| CTTAGCACGTGCATGT | 0.01 |
| GGTGTCACGTGAGTAC | 0.27 |
| TGAGGCACGTGGTGAC | -0.21 |
| AAATGCACGTGTTGGC | -0.07 |
| GGATCCACGTGTTGTT | 0.12 |
| TGCATCACGTGTTGGG | 0.15 |
| GTGGTCACGTGGTGTG | 0.13 |
| GTTTCCACGTGCTTGT | 0.11 |
| ACTGGCACGTGTATGG | -0.1 |
